Here are results for two compounds from article PMC12668310, “High‐Throughput Synthesis and Screening of a Cyanimide Library Identifies Selective Inhibitors of ISG15‐Specific Protease mUSP18” (Angewandte Chemie (International Ed. in English), 2025).

Molecules are shown by their SMILES. pIC50: −log10 of the molar value.

Series [1] concerns the target T1, mUSP18/ISG15 interaction (Mus musculus, UniProt Q9WTV6).
T1 sequence (Q9WTV6 1-368): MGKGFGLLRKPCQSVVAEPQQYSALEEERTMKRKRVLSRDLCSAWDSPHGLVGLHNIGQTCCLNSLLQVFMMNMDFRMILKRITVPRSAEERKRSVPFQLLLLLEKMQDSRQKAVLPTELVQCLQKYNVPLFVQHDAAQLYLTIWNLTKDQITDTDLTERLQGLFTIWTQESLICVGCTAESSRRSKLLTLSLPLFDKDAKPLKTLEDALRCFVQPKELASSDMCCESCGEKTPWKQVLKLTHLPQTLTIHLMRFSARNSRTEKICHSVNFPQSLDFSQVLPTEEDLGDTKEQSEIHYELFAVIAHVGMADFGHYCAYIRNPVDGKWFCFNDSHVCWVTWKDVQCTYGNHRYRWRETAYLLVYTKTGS
The experiment in a line: NanoBRET assay, mUSP18/ISG15 interaction in HEK293T cells. Background: In BRET a luciferase serves as donor, and the signal depends on an acceptor being close.

The target of series [2] is murine USP18/human STAT2 interaction (Mus musculus, UniProt Q9WTV6). Briefly: NanoBRET assay, mUSP18/STAT2 interaction in HEK293T cells. As to conditions: highest compound concentration (10 µM).
For series [3], the target named is T2, human USP18/STAT2 interaction (Homo sapiens, UniProt Q9UMW8).
T2 sequence (Q9UMW8 1-372): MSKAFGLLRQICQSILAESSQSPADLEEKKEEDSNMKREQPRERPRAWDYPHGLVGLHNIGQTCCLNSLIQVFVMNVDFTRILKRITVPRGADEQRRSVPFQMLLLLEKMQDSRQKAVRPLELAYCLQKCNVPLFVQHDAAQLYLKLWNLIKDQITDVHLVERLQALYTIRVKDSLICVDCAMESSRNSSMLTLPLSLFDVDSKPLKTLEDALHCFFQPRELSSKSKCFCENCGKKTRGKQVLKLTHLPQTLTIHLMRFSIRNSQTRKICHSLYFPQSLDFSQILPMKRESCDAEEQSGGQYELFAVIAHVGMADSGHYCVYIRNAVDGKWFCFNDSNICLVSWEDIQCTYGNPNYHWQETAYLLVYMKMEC
Briefly: NanoBRET assay, hUSP18/STAT2 interaction in HEK293T cells.

Series [4] concerns the target T3, mUSP18 (Mus musculus, UniProt Q9WTV6).
T3 construct: (46-368); His-tag (N); made in house
T3 sequence (Q9WTV6 46-368): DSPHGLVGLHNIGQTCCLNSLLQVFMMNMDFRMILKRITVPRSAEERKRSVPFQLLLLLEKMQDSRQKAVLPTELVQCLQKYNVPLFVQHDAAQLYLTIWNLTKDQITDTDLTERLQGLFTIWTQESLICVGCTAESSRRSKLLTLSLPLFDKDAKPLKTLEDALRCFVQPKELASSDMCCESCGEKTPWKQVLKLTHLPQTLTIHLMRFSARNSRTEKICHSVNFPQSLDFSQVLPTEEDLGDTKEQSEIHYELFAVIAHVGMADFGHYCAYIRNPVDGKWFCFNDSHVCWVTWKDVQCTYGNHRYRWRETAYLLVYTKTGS
Briefly: ISG15CT-Rho activity assay at single concentration (DUB panel conditions). Format: biochemical, murine. As to conditions: 250 nM compound, 30 min incubation. On the procedure:
Data for mUSP18 inhibition was generated separately in an ISG15CT‐Rho activity assay using the same buffer, compound concentration, and 30 min incubation time.
To gain further insights into the selectivity of BB07CA902 for mUSP18, the compound (250 nM concentration) was tested on a DUB panel comprising 41 different recombinant DUBs, including 22 from the structurally related USP family.

The target of series [5] is T4, papain (Carica papaya, UniProt P00784).
T4 construct: papaya latex; purchased Sigma Aldrich P3125; host or cells: papaya latex
T4 sequence (P00784 134-345): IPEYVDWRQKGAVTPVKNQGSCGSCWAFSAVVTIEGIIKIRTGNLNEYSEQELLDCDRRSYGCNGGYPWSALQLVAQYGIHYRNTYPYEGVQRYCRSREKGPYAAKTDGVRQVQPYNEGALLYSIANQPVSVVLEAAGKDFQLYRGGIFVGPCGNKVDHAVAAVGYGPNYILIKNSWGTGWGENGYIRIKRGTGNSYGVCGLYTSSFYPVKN
Briefly: IC50 determination, Z-FR-AMC substrate. In kind it is biochemical. As to conditions: 30 min pre-incubation.

In series [6] the test system is HEK293T cells. The experiment in a line: CellTiter-Glo 2.0 cell viability assay. In kind it is cell-based, human. On the procedure: interaction of p53 with MDM2, and cell viability assay. A) BRET ratio of p53/MDM2
B) Cell viability assay with inhibitor
BB07CA902 in HEK293T cells.
with three technical replicates.
for donor saturation assays.
acceptor plasmid (HaloTag fusion vector).
was added where necessary.
compound disruption assays.
Equivalent volumes of DMSO were
To assess potential nonspecific
(RLU) normalized to vehicle-treated controls.
(ATP-based viability assays read luminescence as a measure of living cells.)

For series [7], the target named is T5, human USP18 (Homo sapiens, UniProt Q9UMW8).
T5 construct: (16-372); His6-GST; made in house
T5 sequence (Q9UMW8 16-372): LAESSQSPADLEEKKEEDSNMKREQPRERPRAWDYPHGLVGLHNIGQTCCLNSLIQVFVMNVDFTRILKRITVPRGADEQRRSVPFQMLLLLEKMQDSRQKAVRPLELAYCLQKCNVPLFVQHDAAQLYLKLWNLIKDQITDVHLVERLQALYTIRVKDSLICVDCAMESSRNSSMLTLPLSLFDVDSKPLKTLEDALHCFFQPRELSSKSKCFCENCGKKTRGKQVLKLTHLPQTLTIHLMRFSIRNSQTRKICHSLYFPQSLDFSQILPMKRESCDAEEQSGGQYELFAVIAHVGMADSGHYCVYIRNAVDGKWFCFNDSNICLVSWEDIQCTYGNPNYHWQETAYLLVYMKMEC
The experiment in a line: IC50 determination, ISG15ct-RhoMP substrate. Format: biochemical. As to conditions: 30 min pre-incubation.

murine USP18/human STAT2 interaction, sequence (P52630 whole entry partner, one chain of several): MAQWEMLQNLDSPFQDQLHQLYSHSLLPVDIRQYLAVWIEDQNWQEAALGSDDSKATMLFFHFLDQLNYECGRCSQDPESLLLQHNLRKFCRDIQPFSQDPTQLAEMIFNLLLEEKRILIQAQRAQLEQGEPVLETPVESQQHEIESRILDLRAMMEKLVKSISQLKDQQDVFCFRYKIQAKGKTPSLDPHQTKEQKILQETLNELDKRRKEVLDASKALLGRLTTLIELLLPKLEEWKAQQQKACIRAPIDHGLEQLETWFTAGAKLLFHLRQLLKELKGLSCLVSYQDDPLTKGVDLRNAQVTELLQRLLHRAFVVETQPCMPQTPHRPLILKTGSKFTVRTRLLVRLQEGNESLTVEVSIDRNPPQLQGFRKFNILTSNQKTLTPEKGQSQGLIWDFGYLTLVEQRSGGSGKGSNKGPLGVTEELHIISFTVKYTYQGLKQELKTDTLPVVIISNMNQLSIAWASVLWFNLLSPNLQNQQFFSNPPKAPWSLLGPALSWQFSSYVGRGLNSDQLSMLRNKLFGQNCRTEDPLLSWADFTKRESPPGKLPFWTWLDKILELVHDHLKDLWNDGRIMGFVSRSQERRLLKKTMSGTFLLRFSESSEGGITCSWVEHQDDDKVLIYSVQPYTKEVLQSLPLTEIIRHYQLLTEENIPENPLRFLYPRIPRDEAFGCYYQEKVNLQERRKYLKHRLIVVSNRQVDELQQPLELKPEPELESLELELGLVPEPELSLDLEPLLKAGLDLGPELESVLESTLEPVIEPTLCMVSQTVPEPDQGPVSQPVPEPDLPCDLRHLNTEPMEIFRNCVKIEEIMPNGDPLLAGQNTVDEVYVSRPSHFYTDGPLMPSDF

As to `Cc1cc(C(=O)N[C@@H]2C[C@@H]3CN(C#N)C[C@@H]3C2)ccc1C(C)C` [BB06CA902], the “IC50 in-cell mUSP18/ISG15 interaction” value in series [1] (NanoBRET, HEK293T cells, 0.01–10 µM) is given as “did not show any inhibition”.
Consider `Cc1cc(C(=O)N[C@H]2C[C@@H]3CN(C#N)C[C@@H]3C2)ccc1C(C)C` [BB07CA902], for which the “decrease in BRET signal, mUSP18/STAT2 interaction” value in series [2] worked out at 20%. In series [3], the “inhibition of hUSP18/STAT2 interaction” value is “did not observe any inhibition”. Further, the “inhibition of mUSP18 at DUB panel concentration” value in series [4] is on record as “near complete inhibition”. Further, the pIC50 – broadly, −log10 of the IC50, conventionally taken in molar units – in series [5] is 4.57; in series [1] it was 5.70; in series [7], 5.92. In addition, the cell viability result in series [6] was “not toxic”.
